Several values for one entry are separate records, joined by “and”; a condition that tells them apart may be missing. Equal values may be shown once. Screen size: about 420,000 compounds; about 64,000 (15%) were called active. Inconclusive means that the source gave no clear call. Such entries were picked first, then a sample of the others. The call rests on the fitted dose curve; in most records, active means well fitted inhibition curve with a large enough effect; inconclusive means small, poorly fitted or top-dose-only effect; inactive means flat fitted curve, though single readings scatter. Where the call is inconclusive, the potency comes from a doubtful curve fit.
Experiment: qHTS for Inhibitors of human tyrosyl-DNA phosphodiesterase 1 (TDP1): qHTS in cells in absence of CPT; further: nearly all actives have a fitted effect of over 55% in size
Settings: DT40 Tdp1-/- hTDP1 cells, no CPT, ATP luminescence, 48 h; activity change, negative = growth inhibition: at 46.2 µM (top of the series) unless noted
Procedure, shortened: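 Cells were dispensed at 400 per well, compounds added by pin tool, plates incubated ≥48 hr at 37 °C, then CellTiter-Glo added for 30 min at room temperature before luminescence reading. Line: DT40 Tdp1-/- complemented with hTDP1; camptothecin omitted.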
On the % scale 0 is the no-effect control and ±100 the full control effect; potency means the concentration at half of the fitted maximal effect; tags describe the fitted curve by direction and shape.

| Structure (SMILES) | Potency | activity change, negative = growth inhibition |
| --- | --- | --- |
| CNCCC1Sc2ccccc2Oc2ccccc21 (centres undefined) | inconclusive: 29.1 µM [inhibitor, single point] | – |
| CC1(C)CC(=O)C=C(c2cccc3c2oc2ccccc23)C1 | inconclusive: 29.1 µM [inhibitor, single point] | – |
| Nc1ccc2nc(-c3ccccc3)sc2c1 | inconclusive: 14.6 µM [inhibitor, partial curve] | – |
| COc1cccc(CN2CCN(C(=O)c3ccc(-c4ccccc4)cc3)CC2)c1OC | inactive | – |
| Cc1c(C(=O)NCc2cccc(Br)c2)oc2ccc3c(c12)C(=O)CC(C)(C)O3 | active: 14.6 µM | – |
| CCn1c2ccccc2c2cc(NC(=O)CSc3nnc(-c4cccc(Cl)c4)o3)ccc21 | inconclusive: 20.6 µM [inhibitor, single point] | – |
| CSc1cccc(NS(=O)(=O)c2ccc3c(c2)CCN3C(C)=O)c1 | active: 3.66 µM | – |
| CCn1cc(CN2Cc3ccccc3OC(c3ccccc3OC)C2)c(C)n1 (centres undefined) | inconclusive: 16.4 µM [inhibitor, single point] | – |
| O=C(CN1CCN(CCC(=O)Nc2ccccc2F)CC1)Nc1ccc(Cl)cc1 | inconclusive: 29.1 µM [inhibitor, single point] | – |
| COc1c(C)cccc1C(=O)Nc1ccc(-c2nc3ccccc3s2)c(Cl)c1 | active: 11.6 µM | – |
| Nc1nn(-c2ccccc2)nc1C(=O)OCc1ccc(Cl)cc1 | inactive | – |
| CCOc1ccc(CCNC(=O)Cn2ncn3nc(-c4ccc(OC)cc4)cc3c2=O)cc1 | inconclusive: 23.1 µM [inhibitor, partial curve, poor fit] | – |
| COc1ccc(C)cc1NC(=O)CN1CCCC1c1ccc2c(c1)OCCCO2 (centres undefined) | inconclusive: 18.4 µM [inhibitor, single point] | – |
| COc1ccc2[nH]cc(CCNc3ncnc4ccc(-c5c(C)noc5C)cc34)c2c1 | inconclusive: 29.1 µM [inhibitor, single point] | – |
| O.O=C([O-])CC([S-])C(=O)[O-].[Au+].[Na+].[Na+] (centres undefined) | inactive | – |
| O=C(CCC1CCCN(c2ncccn2)C1)NCc1ccc(F)c(F)c1 (centres undefined) | inactive | – |
| Cc1ccccc1-c1cccc([C@@H]2C[C@H]3[C@H](CON3C)CN2Cc2cc(Cl)cc(Cl)c2)c1 | active: 23.1 µM | – |
| Cn1c(=O)c(-c2ccccc2)nc2cnc(Oc3ccccc3)nc21 | inconclusive: 29.1 µM [inhibitor, single point] | – |
| O=C(COC(=O)c1ccco1)Nc1cccc(S(=O)(=O)N2CCOCC2)c1 | inactive | – |
| Cc1ccc(CN2C(=O)c3ccccc3Sc3ccc(C(=O)NCCN4CCOCC4)cc32)cc1 | inconclusive: 20.6 µM [inhibitor, single point] | – |
| Cc1cc(C)c2ccc(NN)nc2c1O | active: 18.4 µM | – |
| CC(C)(C)OC(=O)Nc1ccccc1-n1nnnc1C(C(=O)c1ccccc1)N1CCN(c2ccccn2)CC1 (centres undefined) | inconclusive: 18.4 µM [inhibitor, single point] | – |

| Structure (SMILES) | Potency | activity change, negative = growth inhibition |
| --- | --- | --- |
| Nc1nc2n(n1)C(c1cccc(Br)c1)CC(c1ccc(F)cc1)N2 (centres undefined) | inconclusive: 20.6 µM [inhibitor, partial curve] | – |
| CCCCC(C(=O)NC(C)c1ccccc1)C(=O)NC(C)c1ccccc1 (centres undefined) | – | inconclusive: -31.9% [inhibitor] |
| COC(=O)COc1ccc2c(-c3ccc(OC)cc3)cc(=O)oc2c1 | inactive | – |
| CN(C(=O)c1ccc(NC(=O)C2CCCN(C(=O)OC(C)(C)C)C2)cc1)C1CCCC1 (centres undefined) | inconclusive: 9.2 µM [inhibitor, partial curve] | – |
| COc1ccc(NC(=O)C23CCC(C)(C(=O)O2)C3(C)C)cc1 (centres undefined) | inactive | – |
| Oc1ccc(/C=N/Nc2ccnc3cc(Cl)ccc23)c(O)c1O | inconclusive: 29.1 µM [inhibitor, single point] | – |
| COc1ccc(-c2cn3nc(N4CCCC(C(=O)NCc5ccc(Cl)cc5)C4)sc3n2)cc1 (centres undefined) | active: 8.2 µM | – |
| Cc1ccc(CCNC(=O)C2CCCN(c3nnc(C)c4c(C)n(-c5ccccc5)nc34)C2)cc1 (centres undefined) | inconclusive: 29.1 µM [inhibitor, single point] | – |
| Cc1cccc(C(=O)NNC(=O)c2ccc(NS(=O)(=O)c3cccs3)cc2)c1C | inactive | – |
| CCOc1ccc(-n2c(Cc3ccccc3)nnc2SCc2c(C)noc2C)cc1 | inconclusive: 29.1 µM [inhibitor, single point] | – |
| COc1ccc(-n2ncc3c(=O)n(CC(=O)N4CCCc5ccccc54)cnc32)cc1 | active: 23.1 µM | – |
| C#CCOCCOCCOCCNc1nc(N2CCN(C(=O)[C@H](CCCCN)n3cc(CN)nn3)CC2)nc(N2CCN(C(=O)[C@H](CCCN=C(N)N)n3cc(C(N)[C@H](C)CC)nn3)CC2)n1 (some centres undefined) | inactive | – |
| CCN(c1ccccc1)c1nc(C#N)nc(N(CC)c2ccccc2)n1 | inconclusive: 29.1 µM [inhibitor, single point] and inconclusive: 35.5 µM [inhibitor, single point] | – |
| COc1ccc(N2CCN(Cc3nc(Cc4cccc(F)c4)no3)C(C)C2)cc1 (centres undefined) | active: 18.4 µM | – |
| COc1ccc(OC)c(NC(=O)C2CCCN(S(C)(=O)=O)C2)c1 (centres undefined) | inactive | – |
| O=C(Nc1ccccc1Cl)N1CCC(CN2CCCC2)CC1 | inactive | – |
| CN(C)C(=O)CCc1ccc2c3c([nH]c2c1)[C@]1(C)[C@@H](C(=O)N2CCCCC2)C[C@H](CC(=O)NCC24CC5CC(CC(C5)C2)C4)C(=O)N1CC3 | active: 13 µM | – |
| COc1cccc(-c2nc(CS(=O)(=O)CC(=O)NCc3cccc(Cl)c3)c(C)o2)c1 | inactive | – |
| COc1ccccc1OCCNC(=O)c1c(-c2ccccc2Cl)noc1C | inconclusive: 29.1 µM [inhibitor, single point] | – |
| COCCNC(=O)c1cccc(OC2CCN(Cc3ccc(C(C)C)cc3)CC2)c1 | inconclusive: 29.1 µM [inhibitor, single point] | – |
| CC1=C(c2ccc(F)cc2)S(=O)(=O)N=C1N1CCC(C(=O)NCCc2cccc(C)c2)CC1 | inconclusive: 29.1 µM [inhibitor, single point] | – |
| COc1ccc(OCC(=O)NC2CCCc3ccccc32)cc1 (centres undefined) | inconclusive: 1.64 µM [inhibitor, full curve] | – |

Reference: PubChem BioAssay AID686978 (National Center for Advancing Translational Sciences (NCATS), 2013)
